# The list shows a part of the results.
# B1: PX9961J-bvu-499-24-499 (Bacteroides vulgatus) (protein)
# chain: LNTDPSTAVPSDDAIKNIDDAQVALNGIYRLASAHSYYGDNYLYYADCRGEDVQARINKGAGRRVSPYYFFDVTADDNFNITLVWNQPYKVIHQANSLIEKLDAGNAGNARPEEVARIKSEALAMRGLALFDLTRLFGMPYTLDNGASLGVPIEIQTTLEDHAPERNTVAQCYEQVLKDLNDALGGLTKEKHDAYMNYWSVKALLSRVYLYMNDNENALKCAEEVINDNGGIYRLFTHDEYPSVWGKDFNSESLFEFYFTMSEPSGGSGGEGAPMVYADNVKDWNNLILTKAYLDLLNEDPEDVRHVFPHLPENAVADTLPVAAKGQPKYLIKYPGKSGSVTDAVSTVNPQDNDLCILRLSEVYLNAAEAAFKIGNTEKALTYLNAIVTRANPAKSVTSADLSLERILKERRKELVGEGHAFFDYMRNGKSVDRSGGWHLTMPEDARVIAPSDPRVALPIPQTEIDANPNIVQNPR
# What was measured:
# Test in all cases: glycan array binding signal (z-score within array); higher = stronger binding
# Conditions in all cases: glycan notation: IUPAC condensed, linker removed
# [1] = target: Neu5Ac(a2-3)Gal(b1-3)GalNAc
# Method in brief: (§1)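 Glycan array binding is given as a within-array Z-score, which can be read as non-binding when negative. The arrays, 3228 of them, came from the Consortium for Functional Glycomics database and were retained only where the protein sequence was available. Z-scores were averaged across arrays of the same protein sequence at different concentrations or buffers and across linkers.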
# [2] = target: Neu5Ac(a2-3)Gal(b1-3)GalNAc(b1-3)Gal(a1-4)Gal(b1-4)Glc
# Method in brief: as §1
# [3] = target: Neu5Ac(a2-3)Gal(b1-3)GalNAc(b1-4)[Neu5Ac(a2-3)]Gal(b1-4)Glc
# Method in brief: as §1
# [4] = target: Neu5Ac(a2-3)Gal(b1-3)GalNAc(b1-4)[Neu5Ac(a2-8)Neu5Ac(a2-3)]Gal(b1-4)Glc
# Method in brief: as §1
# [5] = target: Neu5Ac(a2-3)Gal(b1-3)GalNAc6S
# Method in brief: as §1
# [6] = target: Neu5Ac(a2-3)Gal(b1-3)GlcNAc
# Method in brief: as §1
# [7] = target: Neu5Ac(a2-3)Gal(b1-3)GlcNAc(b1-2)Man
# Method in brief: as §1
# [8] = target: Neu5Ac(a2-3)Gal(b1-3)GlcNAc(b1-2)Man(a1-3)[GlcNAc(b1-4)][Neu5Ac(a2-3)Gal(b1-3)GlcNAc(b1-2)Man(a1-6)]Man(b1-4)GlcNAc(b1-4)GlcNAc
# Method in brief: as §1
# [9] = target: Neu5Ac(a2-3)Gal(b1-3)GlcNAc(b1-2)Man(a1-3)[Neu5Ac(a2-3)Gal(b1-3)GlcNAc(b1-2)Man(a1-6)]Man(b1-4)GlcNAc(b1-4)GlcNAc
# Method in brief: as §1
# [10] = target: Neu5Ac(a2-3)Gal(b1-3)GlcNAc(b1-3)Gal(b1-3)GlcNAc
# Method in brief: as §1
# [11] = target: Neu5Ac(a2-3)Gal(b1-3)GlcNAc(b1-3)Gal(b1-4)GlcNAc
# Method in brief: as §1
# [12] = target: Neu5Ac(a2-3)Gal(b1-3)GlcNAc(b1-3)GalNAc
# Method in brief: as §1
# [13] = target: Neu5Ac(a2-3)Gal(b1-3)GlcNAc(b1-4)Gal(b1-4)Glc
# Method in brief: as §1
# [14] = target: Neu5Ac(a2-3)Gal(b1-3)GlcNAc(b1-6)GalNAc
# Method in brief: as §1
# [15] = target: Neu5Ac(a2-3)Gal(b1-3)GlcNAc6S
# Method in brief: as §1
# [16] = target: Neu5Ac(a2-3)Gal(b1-3)[Fuc(a1-4)]GlcNAc
# Method in brief: as §1
# [17] = target: Neu5Ac(a2-3)Gal(b1-3)[Fuc(a1-4)]GlcNAc(b1-3)Gal(b1-3)[Fuc(a1-4)]GlcNAc
# Method in brief: as §1
# [18] = target: Neu5Ac(a2-3)Gal(b1-3)[Fuc(a1-4)]GlcNAc(b1-3)Gal(b1-4)[Fuc(a1-3)]GlcNAc
# Method in brief: as §1
# [19] = target: Neu5Ac(a2-3)Gal(b1-3)[GlcNAc(b1-6)]GalNAc
# Method in brief: as §1
# [20] = target: Neu5Ac(a2-3)Gal(b1-3)[Neu5Ac(a2-6)]GalNAc
# Method in brief: as §1
# [21] = target: Neu5Ac(a2-3)Gal(b1-3)[Neu5Ac(a2-6)]GlcNAc(b1-3)[Fuc(a1-3)[Gal(b1-4)]GlcNAc(b1-6)]Gal(b1-4)Glc
# Method in brief: as §1
# [22] = target: Neu5Ac(a2-3)Gal(b1-3)]Neu5Ac(a2-3)Gal(b1-4)]GlcNAc
# Method in brief: as §1
# Neu5Ac(a2-3)Gal(b1-4)Glc = target: Neu5Ac(a2-3)Gal(b1-4)Glc
# Method in brief: as §1
# [23] = target: Neu5Ac(a2-3)Gal(b1-4)GlcNAc
# Method in brief: as §1
# [24] = target: Neu5Ac(a2-3)Gal(b1-4)GlcNAc(b1-2)Man
# Method in brief: as §1
# [25] = target: Neu5Ac(a2-3)Gal(b1-4)GlcNAc(b1-2)Man(a1-3)[GlcNAc(b1-4)][Neu5Ac(a2-3)Gal(b1-4)GlcNAc(b1-2)Man(a1-6)]Man(b1-4)GlcNAc(b1-4)GlcNAc
# Method in brief: as §1
# [26] = target: Neu5Ac(a2-3)Gal(b1-4)GlcNAc(b1-2)Man(a1-3)[Neu5Ac(a2-3)Gal(b1-4)GlcNAc(b1-2)Man(a1-6)]Man(b1-4)GlcNAc(b1-4)GlcNAc
# Method in brief: as §1
# [27] = target: Neu5Ac(a2-3)Gal(b1-4)GlcNAc(b1-2)Man(a1-3)[Neu5Ac(a2-3)Gal(b1-4)GlcNAc(b1-2)Man(a1-6)]Man(b1-4)GlcNAc(b1-4)[Fuc(a1-6)]GlcNAc
# Method in brief: as §1
# [28] = target: Neu5Ac(a2-3)Gal(b1-4)GlcNAc(b1-2)Man(a1-3)[Neu5Ac(a2-6)Gal(b1-4)GlcNAc(b1-2)Man(a1-6)]Man(b1-4)GlcNAc(b1-4)GlcNAc
# Method in brief: as §1
# [29] = target: Neu5Ac(a2-3)Gal(b1-4)GlcNAc(b1-2)[Neu5Ac(a2-3)Gal(b1-4)GlcNAc(b1-4)]Man(a1-3)[GlcNAc(b1-4)][Neu5Ac(a2-3)Gal(b1-4)GlcNAc(b1-2)[Neu5Ac(a2-3)Gal(b1-4)GlcNAc(b1-6)]Man(a1-6)]Man(b1-4)GlcNAc(b1-4)GlcNAc
# Method in brief: as §1
# [30] = target: Neu5Ac(a2-3)Gal(b1-4)GlcNAc(b1-2)[Neu5Ac(a2-3)Gal(b1-4)GlcNAc(b1-4)]Man(a1-3)[GlcNAc(b1-4)][Neu5Ac(a2-3)Gal(b1-4)GlcNAc(b1-4)Man(a1-6)]Man(b1-4)GlcNAc(b1-4)GlcNAc
# Method in brief: as §1
# [31] = target: Neu5Ac(a2-3)Gal(b1-4)GlcNAc(b1-2)[Neu5Ac(a2-3)Gal(b1-4)GlcNAc(b1-6)]Man(a1-6)[Neu5Ac(a2-3)Gal(b1-4)GlcNAc(b1-2)Man(a1-3)]Man(b1-4)GlcNAc(b1-4)GlcNAc
# Method in brief: as §1
# [32] = target: Neu5Ac(a2-3)Gal(b1-4)GlcNAc(b1-2)[Neu5Ac(a2-3)Gal(b1-4)GlcNAc(b1-6)]Man(a1-6)[Neu5Ac(a2-3)Gal(b1-4)GlcNAc(b1-2)Man(a1-3)][GlcNAc(b1-4)]Man(b1-4)GlcNAc(b1-4)GlcNAc
# Method in brief: as §1
# [33] = target: Neu5Ac(a2-3)Gal(b1-4)GlcNAc(b1-3)Gal
# Method in brief: as §1
# [34] = target: Neu5Ac(a2-3)Gal(b1-4)GlcNAc(b1-3)Gal(b1-3)GlcNAc
# Method in brief: as §1
# [35] = target: Neu5Ac(a2-3)Gal(b1-4)GlcNAc(b1-3)Gal(b1-4)GlcNAc
# Method in brief: as §1
# [36] = target: Neu5Ac(a2-3)Gal(b1-4)GlcNAc(b1-3)Gal(b1-4)GlcNAc(b1-2)Man(a1-3)[Neu5Ac(a2-3)Gal(b1-4)GlcNAc(b1-3)Gal(b1-4)GlcNAc(b1-2)Man(a1-6)]Man(b1-4)GlcNAc(b1-4)GlcNAc
# Method in brief: as §1
binder,measurement,setting,value
B1,glycan array binding signal (z-score),[1],0.251
same,glycan array binding signal (z-score),[2],0.775
same,glycan array binding signal (z-score),[3],0.61
same,glycan array binding signal (z-score),[4],0.353
same,glycan array binding signal (z-score),[5],-0.388
same,glycan array binding signal (z-score),[6],0.121
same,glycan array binding signal (z-score),[7],-0.134
same,glycan array binding signal (z-score),[8],-0.662
same,glycan array binding signal (z-score),[9],-0.442
same,glycan array binding signal (z-score),[10],-0.535
same,glycan array binding signal (z-score),[11],0.428
same,glycan array binding signal (z-score),[12],0.006
same,glycan array binding signal (z-score),[13],-0.617
same,glycan array binding signal (z-score),[14],-0.357
same,glycan array binding signal (z-score),[15],-0.785
same,glycan array binding signal (z-score),[16],0.031
same,glycan array binding signal (z-score),[17],0.457
same,glycan array binding signal (z-score),[18],-0.506
same,glycan array binding signal (z-score),[19],-0.805
same,glycan array binding signal (z-score),[20],-0.033
same,glycan array binding signal (z-score),[21],0.331
same,glycan array binding signal (z-score),[22],0.358
same,glycan array binding signal (z-score),Neu5Ac(a2-3)Gal(b1-4)Glc,0.041
same,glycan array binding signal (z-score),[23],0.036
same,glycan array binding signal (z-score),[24],0.768
same,glycan array binding signal (z-score),[25],-0.375
same,glycan array binding signal (z-score),[26],0.088
same,glycan array binding signal (z-score),[27],-0.485
same,glycan array binding signal (z-score),[28],0.277
same,glycan array binding signal (z-score),[29],-0.208
same,glycan array binding signal (z-score),[30],0.12
same,glycan array binding signal (z-score),[31],0.855
same,glycan array binding signal (z-score),[32],-0.416
same,glycan array binding signal (z-score),[33],-0.253
same,glycan array binding signal (z-score),[34],0.177
same,glycan array binding signal (z-score),[35],0.774
same,glycan array binding signal (z-score),[36],0.308

# Source: the supplement of paper PMC8728848
